Measurements taken from PubChem BioAssay AID588689 (Southern Research Specialized Biocontainment Screening …, 2011).
Hit rate of the full screen: of about 340,000 compounds, about 1,000 (0.29%) were called active. Inconclusive means that the source gave no clear call. Such entries were picked first, then a sample of the others. No stated cut-off is given here; in the data, inconclusive means inhibition above about 29% without an active follow-up result; inactive means below that.

molecular target: Genome polyprotein (Dengue virus type 2 (strain 16681-PDK53)) (UniProt P29991); test: Dengue-2 NS5 methyltransferase inhibitors, primary screen, biochemical, confirmation dose response (AID 588689); details: Dengue-2 NS5 methyltransferase capping enzyme assay, at 25 µM, hits give high values
Chain of UniProt P29991 (P29991 whole entry, looked up): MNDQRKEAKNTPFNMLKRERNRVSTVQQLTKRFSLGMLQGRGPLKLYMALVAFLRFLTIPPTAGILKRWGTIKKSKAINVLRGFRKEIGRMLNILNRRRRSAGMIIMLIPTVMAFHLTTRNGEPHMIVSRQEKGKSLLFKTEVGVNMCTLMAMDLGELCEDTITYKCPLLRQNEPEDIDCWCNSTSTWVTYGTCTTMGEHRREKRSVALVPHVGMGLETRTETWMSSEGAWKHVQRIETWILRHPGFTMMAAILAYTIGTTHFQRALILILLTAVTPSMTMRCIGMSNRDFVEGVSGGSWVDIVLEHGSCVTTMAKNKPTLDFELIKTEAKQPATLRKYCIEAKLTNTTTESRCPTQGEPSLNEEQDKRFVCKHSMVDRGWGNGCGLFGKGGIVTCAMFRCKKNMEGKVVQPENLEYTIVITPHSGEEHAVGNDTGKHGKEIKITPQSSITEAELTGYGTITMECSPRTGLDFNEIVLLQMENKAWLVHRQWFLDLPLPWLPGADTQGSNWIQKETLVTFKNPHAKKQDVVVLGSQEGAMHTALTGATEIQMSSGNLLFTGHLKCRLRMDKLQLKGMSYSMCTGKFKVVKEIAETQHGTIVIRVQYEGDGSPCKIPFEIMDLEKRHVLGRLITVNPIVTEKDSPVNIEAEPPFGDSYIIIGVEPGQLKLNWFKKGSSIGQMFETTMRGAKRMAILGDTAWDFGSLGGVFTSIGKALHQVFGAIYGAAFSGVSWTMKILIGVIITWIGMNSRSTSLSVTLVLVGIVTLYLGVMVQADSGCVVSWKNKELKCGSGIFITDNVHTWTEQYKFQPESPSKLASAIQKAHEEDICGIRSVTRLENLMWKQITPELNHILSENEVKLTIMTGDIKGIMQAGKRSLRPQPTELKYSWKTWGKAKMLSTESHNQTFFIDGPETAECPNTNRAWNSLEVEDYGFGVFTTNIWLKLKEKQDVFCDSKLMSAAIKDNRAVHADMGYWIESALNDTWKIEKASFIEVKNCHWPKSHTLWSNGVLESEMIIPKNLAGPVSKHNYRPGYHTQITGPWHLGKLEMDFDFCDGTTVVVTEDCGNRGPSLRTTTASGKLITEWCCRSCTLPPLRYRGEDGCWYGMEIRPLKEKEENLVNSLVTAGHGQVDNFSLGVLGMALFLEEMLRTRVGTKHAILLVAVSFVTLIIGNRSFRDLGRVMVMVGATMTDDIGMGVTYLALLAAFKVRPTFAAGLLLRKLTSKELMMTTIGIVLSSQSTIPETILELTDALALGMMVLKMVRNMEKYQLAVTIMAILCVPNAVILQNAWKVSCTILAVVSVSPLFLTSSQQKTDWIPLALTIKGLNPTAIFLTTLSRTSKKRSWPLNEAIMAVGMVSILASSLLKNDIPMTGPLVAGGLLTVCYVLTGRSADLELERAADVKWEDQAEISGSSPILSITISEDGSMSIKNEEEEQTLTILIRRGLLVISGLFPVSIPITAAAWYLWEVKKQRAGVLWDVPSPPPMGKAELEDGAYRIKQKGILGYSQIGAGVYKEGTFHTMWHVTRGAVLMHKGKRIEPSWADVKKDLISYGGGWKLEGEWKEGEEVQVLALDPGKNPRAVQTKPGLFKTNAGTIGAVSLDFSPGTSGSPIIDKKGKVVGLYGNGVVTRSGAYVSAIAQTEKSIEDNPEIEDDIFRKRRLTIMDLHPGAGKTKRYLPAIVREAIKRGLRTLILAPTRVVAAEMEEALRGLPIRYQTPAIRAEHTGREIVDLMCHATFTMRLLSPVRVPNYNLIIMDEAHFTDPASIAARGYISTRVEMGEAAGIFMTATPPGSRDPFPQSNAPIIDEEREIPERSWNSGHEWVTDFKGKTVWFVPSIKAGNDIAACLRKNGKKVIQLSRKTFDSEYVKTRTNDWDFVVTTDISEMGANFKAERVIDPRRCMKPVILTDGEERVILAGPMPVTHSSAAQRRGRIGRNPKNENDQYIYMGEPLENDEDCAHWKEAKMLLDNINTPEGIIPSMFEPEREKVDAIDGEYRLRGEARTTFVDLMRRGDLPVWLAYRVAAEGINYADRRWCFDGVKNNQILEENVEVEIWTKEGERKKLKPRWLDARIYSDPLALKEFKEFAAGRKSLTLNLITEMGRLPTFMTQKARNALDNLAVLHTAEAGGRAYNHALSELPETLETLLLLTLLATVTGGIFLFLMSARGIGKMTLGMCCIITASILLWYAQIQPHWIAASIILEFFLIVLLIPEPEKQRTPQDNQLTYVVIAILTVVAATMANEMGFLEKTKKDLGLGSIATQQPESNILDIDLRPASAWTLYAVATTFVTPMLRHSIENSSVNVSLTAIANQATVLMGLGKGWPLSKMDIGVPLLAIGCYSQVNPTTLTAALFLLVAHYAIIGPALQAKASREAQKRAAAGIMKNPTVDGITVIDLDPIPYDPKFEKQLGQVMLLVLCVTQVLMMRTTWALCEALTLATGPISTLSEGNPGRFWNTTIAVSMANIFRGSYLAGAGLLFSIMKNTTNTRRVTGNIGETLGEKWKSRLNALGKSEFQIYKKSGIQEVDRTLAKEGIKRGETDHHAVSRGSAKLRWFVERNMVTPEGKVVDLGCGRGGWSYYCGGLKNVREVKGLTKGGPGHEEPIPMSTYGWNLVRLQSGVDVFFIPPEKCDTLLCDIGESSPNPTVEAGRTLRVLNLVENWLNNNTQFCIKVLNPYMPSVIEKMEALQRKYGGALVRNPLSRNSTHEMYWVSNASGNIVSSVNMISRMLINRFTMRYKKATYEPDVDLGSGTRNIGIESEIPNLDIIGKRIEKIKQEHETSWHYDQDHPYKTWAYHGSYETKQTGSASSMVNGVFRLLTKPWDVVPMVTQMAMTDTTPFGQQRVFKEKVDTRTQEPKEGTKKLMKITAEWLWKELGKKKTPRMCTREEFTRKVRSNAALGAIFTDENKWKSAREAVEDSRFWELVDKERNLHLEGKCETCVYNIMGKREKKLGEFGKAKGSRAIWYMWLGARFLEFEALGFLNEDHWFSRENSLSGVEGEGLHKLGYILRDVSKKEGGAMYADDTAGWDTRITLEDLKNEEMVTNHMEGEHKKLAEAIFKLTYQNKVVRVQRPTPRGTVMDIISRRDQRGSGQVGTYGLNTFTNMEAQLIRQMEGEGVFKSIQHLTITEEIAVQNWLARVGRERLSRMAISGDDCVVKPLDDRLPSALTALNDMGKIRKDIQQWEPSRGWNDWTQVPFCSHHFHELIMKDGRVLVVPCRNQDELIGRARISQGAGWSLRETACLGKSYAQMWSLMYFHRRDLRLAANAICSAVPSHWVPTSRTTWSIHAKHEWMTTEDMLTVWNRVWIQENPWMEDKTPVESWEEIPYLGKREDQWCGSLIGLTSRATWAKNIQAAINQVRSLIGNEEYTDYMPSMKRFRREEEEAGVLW

| SMILES | inhibition |
| --- | --- |
| CCN(CC)c1ccc(/C=C2\C(=O)c3ccc(C(=O)O)cc3C2=O)cc1 | inconclusive: 152% |
| Cc1cc(=O)[nH]c(N/N=C/c2cc(C)n(CC(F)(F)F)c2C)n1 | inactive: 1.74% |
| Oc1c(CN2CCOCC2)cc(CN2CCOCC2)c(O)c1CN1CCOCC1 | inactive: 20.2% |
| Cc1cc(N2CCOCC2)ccc1/C=C1\NC(=O)N(CC(=O)Nc2ccc(F)cc2)C1=O | inconclusive: 53.6% |
| O=C(Nc1ccccc1F)C(=Cc1sc(N2CCOCC2)nc1-c1ccccc1)C(=O)Nc1ccccc1F | inconclusive: 144% |
| CC(Oc1ccc(-c2ccccc2)c(F)c1)c1ccn(S(=O)(=O)c2ccc(Cl)cc2)n1 (stereo not drawn) | inconclusive: 162% |
| O=C(NCc1ccccc1Cl)C(=O)NCC1OCCN1S(=O)(=O)c1ccc(F)cc1 (stereo not drawn) | inactive: -4.82% |
| COC/C=C/C1=CC2=CC(=O)C(C)(OC(=O)c3cnc4ccccc4n3)C(=O)C2=CN1CC1CC1 (stereo not drawn) | inconclusive: 57.9% |
| N#Cc1c(N2CCN(c3ccc([N+](=O)[O-])cc3)CC2)[n+](=O)c2ccc(Cl)cc2n1[O-] | inconclusive: 43.6% |
| COC(=O)c1cc2c(-c3ccccc3)c(C)c3ccccn3c-2c1C(=O)OC | inconclusive: 61.4% |
| N=c1c(S(=O)(=O)c2ccc(Br)cc2)cc2c(=O)n3ccccc3nc2n1Cc1ccccc1 | inconclusive: 107% |
| Cc1c(/C=C(\C#N)c2nn(-c3ccccc3)c(N)c2C#N)c2ccccc2n1Cc1ccc(F)cc1 | inconclusive: 32.1% |
| CC(C)CC1=NN(C(=O)c2ccco2)C(O)(C(F)(F)F)C1 (stereo not drawn) | inconclusive: 53.9% |
| CCCN(CCC)c1nc2c(C)cccn2c(=O)c1/C=C1/SC(=S)N(Cc2ccco2)C1=O | inconclusive: 171% |
| Cc1occc1C(=O)Nc1cnn(CCCC(=O)O)c1 | inactive: 0.32% |
| CN(C)C=Nc1c(Br)cc(Br)c2nonc12 | inconclusive: 77% |
| O=C(CN1C(=O)/C(=C/c2cccc(Br)c2)SC1=S)N1CCCC1 | inactive: -5.1% |
| CC(=O)OCCNc1cc(N2CCN(C)CC2)c2noc3c2c1C(=O)c1ccccc1-3 | inconclusive: 138% |
| CCC(C)N1C(=O)/C(=C/c2c(NCCCOC(C)C)nc3c(C)cccn3c2=O)SC1=S (stereo not drawn) | inconclusive: 170% |
| CC(O)CN(CC(C)O)c1ccc2c(c1)Cc1cc([N+](=O)[O-])ccc1-2 (stereo not drawn) | inconclusive: 43.7% |
| C/C(=N\NS(=O)(=O)c1ccccc1)c1cccc(NC(=O)c2cccc(Cl)c2)c1 | inactive: -5.93% |
| CCOC(=O)c1ccc(COC(=O)c2ccc3c(c2)-c2ccccc2C3=O)cc1 | inactive: 13.5% |
| CCOC(=O)/C(=N\Nc1ccc(C(C)=O)cc1)c1csc(Nc2ccccc2)n1 | inconclusive: 31.3% |
| Nc1c(C(=O)C2CC2)sc2nc(-c3ccccc3)cc(C(F)(F)F)c12 | inconclusive: 164% |
| O=C1N=C(N2CCOCC2)S/C1=C/c1ccc(-c2ccccc2Cl)o1 | inconclusive: 47.4% |
| O=C(CNC(=O)c1ccco1)OCc1c(F)cccc1Cl | inconclusive: 132% |
| CCN(CC)c1ccc2cc(C(=O)NNC(=O)c3ccc(S(=O)(=O)N4CCCCC4)cc3)c(=O)oc2c1 | inconclusive: 30.3% |

| SMILES | inhibition |
| --- | --- |
| Cc1ccc2oc(=O)c(/C=C(\O)c3cccs3)nc2c1 | inconclusive: 50.1% |
| Cc1cccc(OCC(=O)NC(=S)Nc2ccc(S(=O)(=O)NC3CCCCC3)cc2)c1 | inactive: 0% |
| COc1ccc(C(=O)/C=C/Nc2ccc([N+](=O)[O-])cc2C)cc1OC | inconclusive: 68.3% |
| N#C/C(=C/c1ccc(N2CCOCC2)o1)C(=O)Nc1ccccc1 | inconclusive: 157% |
| O=C1C=CC(=O)c2c(O)c(CO)c(CO)c(O)c21 | inconclusive: 94.1% |
| CC(C)CN(C(=O)COC(=O)CSc1ccc(Br)cc1)C1CCS(=O)(=O)C1 (stereo not drawn) | inactive: -3.62% |
| CC(OC(=O)c1c2c(nc3ccccc13)/C(=C\c1ccc3c(c1)OCO3)CCC2)C(=O)Nc1ccc(S(N)(=O)=O)cc1 (stereo not drawn) | inconclusive: 106% |
| Cc1ccc(C2=CC(c3cccs3)n3nnnc3N2)cc1 (stereo not drawn) | inconclusive: 94.9% |
| CCOc1ccc(N(C)c2ccc(/C=C3/SC(=S)NC3=O)cc2)cc1 | inconclusive: 145% |
| COCCCNC(=O)/C(C#N)=C/c1c(N2CCN(c3ccccc3)CC2)nc2c(C)cccn2c1=O | inconclusive: 34% |
| COc1cccc(C(=O)NCc2ccc3[nH]c(C)cc3c2)c1 | inconclusive: 48.9% |
| Cc1cccc(/C=N/NC(=O)C(C)Nc2cccc3ccccc23)n1 (stereo not drawn) | inconclusive: 55.5% |
| CCCC(=O)C1=C(c2ccccc2)C(C#N)(C#N)C(C#N)=C1N | inconclusive: 72.6% |
| NS(=O)(=O)c1ccc(NC(=O)CN2CCCc3ccccc32)cc1 | inconclusive: 43.1% |
| COc1ccc(-c2nc3ccc(C(=O)NCCCN4CCOCC4)cc3nc2-c2ccc(OC)cc2)cc1 | inactive: -9.54% |
| Cc1cccn2c(=O)c3cc(C(=O)NC4CCCC4)c(=N)n(CCc4ccccc4)c3nc12 | inconclusive: 49.1% |
| N#CC1(C#N)COC23CCCCC2C1(C#N)C(=N)O3 (stereo not drawn) | inconclusive: 90.5% |
| O=C(N/N=C/c1cc2c3c(c1O)CCCN3CCC2)c1ccccc1O | inconclusive: 45.3% |
| Cc1c2ccccc2nc2c(F)c(NCCO)c(F)c(F)c12 | inconclusive: 40.2% |
| Cc1c(NC(=S)NC(=O)c2ccc(-c3ccc(Cl)cc3)o2)cccc1C(=O)O | inactive: 8.19% |
| Cc1nn(-c2ccccc2)nc1CNC(=O)C(C)Cc1ccccc1 (stereo not drawn) | inactive: -2.38% |
| N#Cc1ccsc1NC(=O)CSc1nncs1 | inconclusive: 31.9% |
| CN(C)CCN1C(=O)c2cccc3cc([N+](=O)[O-])cc(c23)C1=O | inconclusive: 74.1% |
| CN1CCc2nc(SC(C(=O)O)c3ccccc3)c(C#N)c(-c3cccs3)c2C1 (stereo not drawn) | inactive: 23.2% |
| O=C1Nc2ccccc2/C1=C/c1cnc(-c2ccccc2)[nH]1 | inconclusive: 94.6% |
| O=c1oc2ccccc2cc1-c1nc2c(s1)CCc1ccccc1-2 | inconclusive: 29.1% |
